PubChem BioAssay AID1645882 (National Center for Advancing Translational Sciences (NCATS), 2021)
Among all 16,000 compounds or so, about 120 (0.75%) were called active. Roughly 4% stayed inconclusive and do not appear here. Calls follow the shape of the dose curve; as a rule, active = well fitted inhibition curve with a large enough effect; inconclusive = small, poorly fitted or top-dose-only effect; inactive = no such curve, though single readings can be large or run the other way. The list shows a part of the results.

These molecules were tested against Rap guanine nucleotide exchange factor 3 (Homo sapiens) (UniProt O95398) (assay: Validation qHTS for antagonist of cAMP-regulated guanine nucleotide exchange factor 3 (EPAC1)). Settings: EPAC1 Rap1B-BODIPY-GDP exchange, fluorescence; series mostly up to 150 µM; activity change, negative = inhibition: at the top concentration.
Sequence of UniProt O95398 (O95398 whole entry, looked up): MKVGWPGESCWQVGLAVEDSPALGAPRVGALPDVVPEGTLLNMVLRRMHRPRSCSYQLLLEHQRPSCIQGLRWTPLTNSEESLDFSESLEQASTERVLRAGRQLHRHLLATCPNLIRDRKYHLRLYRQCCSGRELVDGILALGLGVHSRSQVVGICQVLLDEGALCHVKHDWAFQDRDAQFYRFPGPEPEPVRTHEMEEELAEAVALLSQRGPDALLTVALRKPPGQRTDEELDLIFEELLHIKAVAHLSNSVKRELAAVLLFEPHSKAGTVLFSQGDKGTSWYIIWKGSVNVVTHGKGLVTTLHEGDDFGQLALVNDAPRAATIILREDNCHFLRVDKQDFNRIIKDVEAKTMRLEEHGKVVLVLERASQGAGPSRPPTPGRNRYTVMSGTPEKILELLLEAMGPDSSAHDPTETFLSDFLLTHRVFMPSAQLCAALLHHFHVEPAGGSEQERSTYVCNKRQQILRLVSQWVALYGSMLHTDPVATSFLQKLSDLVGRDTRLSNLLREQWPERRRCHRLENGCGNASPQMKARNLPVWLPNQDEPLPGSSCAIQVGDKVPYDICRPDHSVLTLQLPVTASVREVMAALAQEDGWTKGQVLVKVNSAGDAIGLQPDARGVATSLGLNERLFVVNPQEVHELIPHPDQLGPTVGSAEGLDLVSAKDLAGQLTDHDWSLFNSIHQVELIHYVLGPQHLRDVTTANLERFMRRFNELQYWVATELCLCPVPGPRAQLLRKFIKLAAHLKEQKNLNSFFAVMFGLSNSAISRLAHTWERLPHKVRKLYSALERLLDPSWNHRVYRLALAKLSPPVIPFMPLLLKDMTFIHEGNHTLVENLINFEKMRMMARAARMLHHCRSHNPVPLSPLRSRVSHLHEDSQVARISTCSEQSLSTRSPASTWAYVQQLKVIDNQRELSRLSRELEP
Summary of the method: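 Nucleotide exchange followed as fluorescence loss when BODIPY-GDP leaves Rap1B (480 nm excitation, 540 nm emission), read at 5 min intervals over 30 min. Reaction: 100 nM EPAC1, 250 nM RAP1B-BODIPY-GDP, 50 uM GDP; ATA and DMSO define normalization.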
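Also: plate controls were DMSO for no effect and ATA control for full effect; nearly all actives have a fitted effect of over 75% in size.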

Activity change, negative = inhibition, inactive:
COc1ccccc1CNc1ncnc2ccc(-c3ccc(C(=O)N(C)C)cc3)cc12 -14.4%
Cc1noc(C)c1-c1nccc(N(C)Cc2ccco2)n1 0.0846%
O=C(Cc1cscn1)N1CCOc2ccc(CN3CCN(c4ccccn4)CC3)cc2C1 13.2%
FC1(F)C(F)(F)C(F)(F)C2(F)C(F)(F)C(F)(F)C(F)(F)C(F)(F)C2(F)C1(F)F (stereo not drawn) 21.2%
CN(C/C=C/C#CC(C)(C)C)Cc1cccc2ccccc12 8.84%
CCCCCC(=O)O[C@@]1(C(C)=O)CCC2C3CCC4=CC(=O)CC[C@@]4(C)C3CC[C@]21C (stereo partly drawn) -7.64%
O=c1[nH]cnc2c1ncn2[C@H]1CC[C@@H](CO)O1 10.9%
CCCCCCc1ccc(N2C[C@H](Cc3ccccc3)[C@@H](CC(=O)Nc3ccccc3)C2=O)cc1 -0.095%
NCC1OC(OC2C(N)CC(N)[C@@H](O)[C@@H]2OC2O[C@H](CO)[C@@H](O[C@@H]3OC(CN)C(O)C(O)C3N)C2O)C(N)C(O)C1O (stereo partly drawn) 14.3%
N.N.O=C(O)C1(C(=O)O)CCC1.[Pt]
COc1cc2cc[n+]3cc4c(OC)c(OC)ccc4cc3c2cc1OC -7.46%
Fc1ccc([C@@H]2CCNC[C@H]2COc2ccc3c(c2)OCO3)cc1
Cc1cccc(C)c1N(CCCc1cccnc1)C(=O)C(C)N (stereo not drawn) 14.4%
Cc1nc2cncnc2n(-c2ccccc2)c1=O -11.2%
Clc1ccc(Nc2nnc(Cc3ccncc3)c3ccccc23)cc1
C=CC(=O)O 25.7%
COc1cc2c(cc1OC)CN(C(=O)[C@@H]1C[C@H](NCc3cn(C)c4ccccc34)CN1C1Cc3ccccc3C1)CC2 -8.75%
Cc1cc(O)c2c(c1)C(=O)c1cc(O)cc(O)c1C2=O
CN(C)C(=O)c1ccc(-c2cc(N(C)Cc3ccco3)ncn2)cc1 -2.77%
O=S(=O)(NCc1ccc(F)cc1)c1ccccc1Br 6.07%
CCCCCCOc1ccc(C(=N)N(CCCC)CCCC)c2ccccc12 -3.39%
O=C1[C@H](Cc2ccccc2)NCCCC[C@H](c2ccc(Cl)cc2)N1Cc1ccccc1 -10.7%
Cc1noc(C)c1C(=O)N1CCC[C@@]2(CCN(C(=O)Nc3cccc(C#N)c3)C2)C1 8.8%
CS(=O)(=O)Nc1cccc(-c2ccc3ncnc(NCCN4CCOCC4)c3c2)c1 7.9%
CN(C)C(=O)Oc1cccc([N+](C)(C)C)c1
Cc1ccc2c(c1)C(N1CCN(C)CC1)=Nc1cccnc1N2 2.09% [at 75.8 µM]
COc1cccc(-c2cc(=O)c3ccc(OC)cc3o2)c1 12.3%
CN1CCC(OC(c2ccccc2)c2ccccc2)CC1
COc1cccc(Cn2c(=O)c(CCc3ccccc3)nc3cnc(N4CCOCC4)nc32)c1 -8.5%
CCOC(=O)[C@H](CCc1ccccc1)N[C@@H](C)C(=O)N1Cc2cc(OC)c(OC)cc2C[C@H]1C(=O)O 10.6%
O=C(Oc1cccc2cccnc12)c1ccccc1 12.2%
C/C(O)=C1\C(=O)[C@@H]2[C@H]3c4c[nH]c5cccc(c45)C[C@H]3C(C)(C)N2C1=O
C/C=C1\[C@H]2C=C(C)C[C@]1(N)c1ccc(=O)[nH]c1C2 13.4%
O=C(CS)Nc1ccccc1 3.21%
O=C(NCC1CCC2(CCN(Cc3c[nH]c4ccccc34)CC2)O1)C1CCOCC1 (stereo not drawn) 2.25%
COc1ccc(-c2nc3cnc(N4CCN(C)CC4)nc3n(-c3ccc(OC)cc3)c2=O)cc1 19%
O=c1[nH]cnc2[nH]ncc12
Nc1ccc2c3c(cccc13)C(=O)NC2=O -6.18% [at 75.8 µM]
COC(=O)[C@@H]1CCCN1C(=O)c1c(OC)cc(=O)n2c1CCN(Cc1ccc(C)o1)CC2 -1.79%
COc1ccc(-n2c(=O)c(CCc3ccccc3)nc3cnc(OC)nc32)cc1 10.3%
c1ccc(Nc2ncnc3ccc(-c4ccc5c(c4)OCO5)cc23)cc1 19.9%
CN(C)c1ccc(/C=C/c2c3ccccc3nc3ccccc23)cc1 21.6%
CCCCCCCCN1[C@@H](CC(=O)OC)c2ccc(/C=C/C(=O)OC)cc2S1(=O)=O 11.9%
CC(C(=O)O)c1ccc(C(=O)c2cccs2)cc1 (stereo not drawn)
CN(CC1COCCO1)C(=O)c1cnn(-c2nccc(-c3ccccc3C(F)(F)F)n2)c1C1CC1 (stereo not drawn) 10.8%
CCCN1CCC(=O)N([C@H](CSc2ccccc2)c2ccccc2)CC1 -10.4%
O=C(CCc1cccnc1)NCC1Cc2cccc(-c3ncccn3)c2O1 (stereo not drawn) 16.3%
CN(Cc1ccco1)c1ncncc1-c1cccc(C#N)c1 -5.6%
COc1ccc(/C=C/C(=O)c2ccc(OC)cc2OC)cc1 -13.4%
COc1cc2ncnc(Nc3ccc(F)c(Cl)c3)c2cc1OCCCN1CCOCC1 22.4%
CC(=O)NCCNc1nc(-c2cccnc2)nc2ccccc12 1.96%
Cc1cc2c(c(-c3nc4ccccc4s3)c1)OC(CNC(=O)c1occc1C)C2 (stereo not drawn) 6%
Cc1cc(=O)[nH]c2ccc([N+](=O)[O-])cc12 5.23%
CCC1CN(CCNC(=O)C(C)(C)O)Cc2cc(OC)ccc2O1 (stereo not drawn) 9.58%
C=CC(C)(O)CCCC(C)CCCC(C)CCCC(C)C (stereo not drawn) 6.5%
OC[C@H]1NC[C@H](O)[C@@H](O)[C@H]1O 10.2%
Clc1cccc[n+]1CCCCCC[n+]1ccccc1Cl 18.6%
CN1CCC[C@@H]1CCO[C@](C)(c1ccccc1)c1ccc(Cl)cc1
CCOc1ccc(NC(C)=O)cc1
Cc1ccc(C)c(CN2C[C@H](Sc3nc4ccccc4[nH]3)C[C@H]2C(=O)N2CCCN(C)CC2)c1 11.6%
COc1cc(/C(C)=C/c2ccccc2)c2c(c1)oc1ccccc12 4.59%
O=C(O)C1CC[C@@](C(=O)O)(c2ccccc2)c2ccccc21 (stereo partly drawn) 11%
C[C@@H]1CN(Cc2ccc3c(c2)CN(C(=O)CCc2nc4ccc(F)cc4[nH]2)CCO3)C[C@H](C)O1 13.1%
COc1ccc(-c2nc3cnc(N4CCNCC4)nc3n(CCc3ccccc3)c2=O)cc1 16.4%
CC(C)[C@H](N)C(=O)OCC(CO)OCn1cnc2c(=O)[nH]c(N)nc21 (stereo partly drawn) 7.62%
CCC1COCCS(=O)(=O)N1Cc1ccccc1 (stereo not drawn) 16.9%
COc1ccc(F)c(CN2CCOc3ccc(CN4CCC(Oc5cccnc5)CC4)cc3C2)c1 17.4%
COCC(=O)N1CCC2(CC1)CCN(c1cccc(-c3ccccc3)c1)CC2 -7.18%
